IC50 is the fitted dose that halves viability relative to control wells, and lower means more sensitive; where the fit passes the top or lowest dose, that dose stands as a limit. AUC, from the same fit, is the share of area under the viability curve across the 256-fold dose range; values near 1 show little effect. For some of these results: The top dose, if marked as inferred, was calculated from the reported fits. For some of these results: Drugs with an entry number were screened twice under separate entries, and the two screens often disagree.
Experiments:
Test in all cases: Viability of human cancer cell lines after 72 h of drug (GDSC screen)
Parthenolide = compound: C=C1C(=O)O[C@H]2[C@H]1CC/C(C)=C/CC[C@@]1(C)O[C@@H]21 [Parthenolide]; conditions: top dose 5 µM
Method: (§1)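 Human cancer cell lines in 384-well plates, medium with 10% serum, drug for 72 h over a 256-fold dose range (nine 2-fold or five 4-fold steps up to the top dose). Adherent lines were fixed and stained with the nucleic acid dye Syto60, suspension lines read with resazurin; signal relative to control wells, capped at 0 and 100%. One two-parameter sigmoid per drug and line, fitted in a mixed model over all curves with the slope shared within a line.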

PAC-1 = compound: C=CCc1cccc(/C=N/NC(=O)CN2CCN(Cc3ccccc3)CC2)c1O [PAC-1]; conditions: top dose 2.56 µM
Method: as §1

KIN001-135 = compound: COc1cc2ncn(-c3cc(OCc4ccccc4S(C)(=O)=O)c(C#N)s3)c2cc1OC [KIN001-135]; conditions: top dose 5 µM; top dose inferred
Method: as §1

BMS-708163 = compound: NC(=O)[C@@H](CCC(F)(F)F)N(Cc1ccc(-c2ncon2)cc1F)S(=O)(=O)c1ccc(Cl)cc1 [BMS-708163]; conditions: top dose 5 µM; screen: GDSC drug entry 1072; top dose inferred
Method: as §1

Cell Line | AUC (Parthenolide) | IC50 (Parthenolide) [µM] | AUC (PAC-1) | IC50 (PAC-1) [µM] | AUC (KIN001-135) | IC50 (KIN001-135) [µM] | AUC (BMS-708163) | IC50 (BMS-708163) [µM]
SK-MEL-2 (melanoma, adherent) | 0.987 | > 5 | 0.946 | > 2.56 | 0.98 | > 5 | 0.978 | > 5
SK-MM-2 (myeloma, suspension) | 0.959 | > 5 | 0.931 | > 2.56 | 0.985 | > 5 | 0.984 | > 5
SK-N-DZ (neuroblastoma, adherent) | 0.878 | 4.99 | 0.976 | > 2.56 | 0.988 | > 5 | 0.978 | > 5
SK-N-FI (neuroblastoma, adherent) | 0.942 | > 5 | 0.989 | > 2.56 | 0.987 | > 5 | 0.94 | > 5
SK-PN-DW (Ewing sarcoma, adherent) | 0.903 | > 5 | 0.974 | > 2.56 | 0.975 | > 5 | 0.985 | > 5
SK-UT-1 (soft tissue, adherent) | 0.695 | 1.04 | 0.975 | > 2.56 | 0.989 | > 5 | 0.925 | > 5
SLVL (B-cell lymphoma, suspension) | 0.954 | > 5 | 0.879 | > 2.56 | 0.978 | > 5 | 0.985 | > 5
SNU-C1 (large intestine, suspension) | 0.975 | > 5 | 0.93 | > 2.56 | 0.936 | > 5 | 0.976 | > 5
SR (lymphoid neoplasm, suspension) | 0.914 | > 5 | 0.923 | > 2.56 | 0.985 | > 5 | 0.983 | > 5
ST486 (Burkitt lymphoma, suspension) | 0.954 | > 5 | 0.791 | 1.01 | 0.984 | > 5 | 0.99 | > 5
SU-DHL-4 (B-cell lymphoma, suspension) | 0.944 | 4.6 | 0.997 | > 2.56 | 0.991 | > 5 | 0.997 | > 5
SU-DHL-6 (B-cell lymphoma, suspension) | 0.816 | 1.93 | 0.993 | > 2.56 | 0.993 | > 5 | 0.983 | > 5
SU-DHL-16 (B-cell lymphoma, suspension) | 0.903 | 3.36 | 0.885 | 1.51 | 0.996 | > 5 | 0.996 | > 5
SUP-B15 (lymphoblastic leukaemia, suspension) | 0.867 | 4.21 | 0.841 | 1.68 | 0.97 | > 5 | 0.971 | > 5
SUP-HD1 (Hodgkin lymphoma, suspension) | 0.84 | 3.2 | 0.914 | > 2.56 | 0.973 | > 5 | 0.934 | > 5
SUP-M2 (anaplastic large cell lymphoma, suspension) | 0.947 | > 5 | 0.994 | > 2.56 | 0.994 | > 5 | 0.994 | > 5
SUP-T1 (T-cell lymphoblastic leukaemia, suspension) | 0.987 | > 5 | 0.795 | 1.06 | 0.977 | > 5 | 0.984 | > 5
SW684 (fibrosarcoma, adherent) | 0.975 | > 5 | 0.947 | > 2.56 | 0.975 | > 5 | 0.878 | > 5
SW872 (soft tissue, adherent) | 0.956 | > 5 | 0.968 | > 2.56 | 0.988 | > 5 | 0.989 | > 5
SW954 (urogenital system, adherent) | 0.958 | > 5 | 0.974 | > 2.56 | 0.982 | > 5 | 0.897 | > 5
SW962 (urogenital system, adherent) | 0.917 | > 5 | 0.962 | > 2.56 | 0.969 | > 5 | 0.946 | > 5
TC-71 (Ewing sarcoma, adherent) | 0.988 | > 5 | 0.992 | > 2.56 | 0.989 | > 5 | 0.992 | > 5
TE-1 (oesophagus, adherent) | 0.902 | > 5 | 0.982 | > 2.56 | 0.937 | > 5 | 0.915 | > 5

From the supplement of paper PMC4967469
